Laboratory results reported in ChEMBL document CHEMBL4888484, “Replenishing the malaria drug discovery pipeline: Screening and hit evaluation of the MMV Hit Generation Library 1 (HGL1) against asexual blood stage Plasmodium falciparum ,using a nano luciferase reporter read-out” (2022).
The whole screen tested about 150,000 compounds, of which about 540 (0.36%) showed an effect of 50% or more. The list shows a part of the results.

Each compound was assayed on Plasmodium falciparum (assay: Primary screen in NF54 nanoGlo assay, in single point, at 2uM, 72h; a lower Z score goes with more inhibition). Conditions: timepoint 72 hour.
Format: functional, Erythrocyte

| SMILES | % Inhibition [%] | Z score |
| --- | --- | --- |
| CC(C)c1ccc(NC(=O)O[C@@H]2CO[C@H]3[C@@H]2OC[C@@H]3NC(=O)c2ccccc2)cc1 | 25 | -2.86 |
| COc1ccc(CNc2nnc(-c3ccc4c(c3)CCC4)c3ccccc23)cc1 | 0 | -0.05 |
| CCN(CCn1cccn1)c1cc([C@H]2CCOC2)nc(N2CC(O)C2)n1 | -8 | 1.47 |
| COC(=O)[C@H]1CC[C@H](C(=O)NCc2cccc(NC(=O)N(C)C)c2)CC1 | -8 | 1.35 |
| COc1ccc(NC(=O)Nc2sc(NS(=O)(=O)c3ccccc3)nc2C)cc1 | 8 | -1.05 |
| Cc1cc(Oc2ccc(NS(=O)(=O)N3CCC[C@@H]3C)cc2)n[nH]1 | -8 | 1.24 |
| NC(=NOCC(=O)Nc1ccc(Cl)cc1)c1ccccc1CN1CCCCC1 | -5 | 0.56 |
| CCC(C)C(Nc1ncc(C#N)cc1Cl)C(N)=O (configuration not stated) | 0 | -0.05 |
| CC[C@@H](C(=O)N1Cc2cncnc2C1)c1ccc(OC)cc1 | -6 | 0.88 |
| Cc1cc(-c2noc(CCC(=O)N3CCC(C4OCCO4)CC3)n2)ccc1F | 0 | 0.03 |
| O=C(O)c1cccc(Cn2cnc(-c3ccccc3)c2[C@H]2CCOC2)c1 | 6 | -0.79 |
| CN(C)[C@@H](CNc1oc(-c2cccs2)nc1C#N)c1ccccc1 | 1 | -0.2 |
| CCC1(CC)C(NC(=O)N(C)CC2CC(O)C2)C(C)C1OC (configuration not stated) | -2 | 0.29 |
| O=C(c1cnc2ccccc2n1)N1CCC[C@H](O)CC1 | -9 | 1.88 |
| O=C(CN1CCC[C@H]1c1nc2ccccc2s1)Nc1c(F)cccc1F | -6 | 1.03 |
| NC(C(=O)Nc1ccc(-c2nc3cccc(Cl)c3s2)cc1)C1CCCO1 (configuration not stated) | -5 | 0.87 |
| CO[C@H]1CCN(C(=O)Cc2c3c(n(Cc4ccccc4)c2C)CCCC3=O)C1 | -6 | 0.63 |
| CN1C(=O)CC[C@H](NS(=O)(=O)CCC2CCCCC2)C1=O | 0 | 0.09 |
| O=C(NCCN1CCOCC1)c1c[nH]c2ccc(Cl)cc2c1=O | 1 | -0.13 |
| COc1ccc(Nc2nc(NCc3cccnc3)nc3[nH]ncc23)cc1 | -1 | 0.15 |
| Cn1cc(-c2csc(COCc3ccccc3)n2)cn1 | -19 | 2.67 |
| CO[C@@H](C)c1noc(CN2CCC(NS(=O)(=O)c3cccs3)CC2)n1 | 0 | 0.04 |

| SMILES | % Inhibition [%] | Z score |
| --- | --- | --- |
| Cc1ccc([C@H](C)NC(=O)c2ccc3c(c2)OCO3)o1 | -5 | 0.74 |
| CC(C)c1nc(N2CCC(CS(C)(=O)=O)CC2)c2cc[nH]c2n1 | -7 | 1.01 |
| CCCC1C(=O)CC(C#N)(C#N)C(C#N)(C#N)C1C (configuration not stated) | -10 | 1.05 |
| CC(C)(C)OC(=O)N1CCN[C@H](c2ccncc2)C1 | -8 | 1.07 |
| CCOc1ccc(-c2cc3c(=O)n(Cc4nc(-c5ccccc5)oc4C)ccn3n2)cc1Cl | -16 | 1.56 |
| CN1CCN(C[C@H]2CCCN(c3ncnc4cc(F)ccc34)C2)CC1 | -4 | 0.65 |
| CC[C@@H](C(=O)NCCc1ccccn1)n1c(Cc2ccccc2Cl)nc2cc(C)c(C)cc21 | -3 | 0.44 |
| O=C(NC1C2CCC(C2)C1CO)c1cncc(F)c1 (configuration not stated) | -7 | 1.29 |
| Cc1ccc(N2CC[C@@]3(CCCN(CCc4ccccc4)C3)C2)nn1 | -19 | 2.42 |
| COc1ccnc(CN2CC(C)(C)[C@@](C)(O)C2)c1 | -11 | 2.1 |
| Cc1cccc(C)c1NC(=O)c1nc(N2CCCCC2)c2c(C)c(C)n(-c3ccccc3)c2n1 | 4 | -0.6 |
| COc1ccc(C(=O)N2CCCC2)cc1S(=O)(=O)Nc1ccc(Oc2ccccc2)cc1 | -4 | 0.62 |
| O=C(Nc1ccsc1C(=O)NC1CCCCC1)c1cnccn1 | 31 | -4.01 |
| CCC(CC)C1CCN(C(=NC)NCC2CN(C)CCN2C)C1 (configuration not stated) | -10 | 1.09 |
| O=C1NCCN(C(=O)c2cn[nH]c2)[C@H]1c1cccc(Br)c1 | -8 | 1.51 |
| COCC1(N(C)C(=O)[C@@H](C)Cn2cncn2)CC1 | -12 | 1.2 |
| Cc1[nH]nc2ncc(-c3nc(-c4ccncc4)no3)cc12 | -13 | 1.45 |
| CCNC(=NC[C@H](C)c1ncc(C)s1)NCC | -10 | 1.39 |
| Cc1nn(C(C)(C)C)cc1[C@H](C)NC(=O)Nc1ccc2c(c1)N(C)CCO2 | -10 | 1.3 |
| COc1ccccc1CN(C(=O)NCc1nc(C(N)=O)no1)C1CCCC1 | 7 | -0.9 |
| CCc1nc(C)sc1CNC(=O)Cc1nc2nc(C)cc(O)n2n1 | -8 | 0.96 |
| COc1cccc(CN2CCO[C@@H](CNC(C)=O)C2)n1 | 5 | -0.97 |

| SMILES | % Inhibition [%] | Z score |
| --- | --- | --- |
| Cc1nnc([C@H]2CCN(Cc3cnc4ccccc4c3)C2)o1 | -1 | 0.17 |
| Cn1cc(C(=O)N2CC=C(c3ccc(Cl)c(C(F)(F)F)c3)CC2)nn1 | 2 | -0.35 |
| CN1CC[C@H](CN(C)S(=O)(=O)Cc2ccccc2)C1(C)C | -11 | 1.33 |
| Cc1ncoc1-c1nnc(-c2cn(C)nn2)o1 | -11 | 1.45 |
| CCN(C)C(=O)c1cc(C)cc(Br)c1 | -10 | 1.25 |
| O=S(=O)(CC1CC1)N[C@H]1CC12CCCCC2 | 7 | -1.3 |
| C[C@H]1CN(c2cccc(C(F)(F)F)n2)CCS1(=O)=O | 0 | 0.05 |
| Cc1noc(-c2cccnc2NCc2ccccn2)n1 | 8 | -0.91 |
| C[C@H](NCCCN1CCCC1=O)c1ccc2c(c1)C(C)(C)C(=O)N2 | -4 | 0.49 |
| C[C@@H](c1ccc(C(=O)NCc2cccc(Cl)c2)o1)N1CCCCC1 | -1 | 0.24 |
| O=C(Nc1ccc(N2CCOCC2)cc1)c1nn(-c2ccccc2C(F)(F)F)cc1O | -8 | 0.71 |
| CCS(=O)(=O)N(C)Cc1cccc(OC(C)C)c1 | -7 | 0.84 |
| CC(C)N(CCn1ccnc1-c1ccoc1)C(C)C | 14 | -2.57 |
| CN(C)C(=O)CNC(=O)Nc1ccc(Cl)cc1 | 7 | -0.8 |
| Cc1cc(C)c2c(C)c(C(=O)N3CCOC34CCCCC4)oc2c1 | 1 | -0.11 |
| COc1ccc(CNC(=O)C(=O)NC(C)C)cc1 | -13 | 2.44 |
| C[C@H](NCCc1cccc(C(=O)N(C)C)c1)c1cc2ccccc2o1 | -7 | 0.99 |
| Cc1cc(-c2nc([C@]3(c4ccc(F)cc4)CCOC3)no2)[nH]n1 | -9 | 1.08 |
| CCN1C(=O)c2cc(NC(=O)CCC3CCCC3)ccc2Oc2ccccc21 | -12 | 1.41 |
| CCCCS(=O)(=O)NCC1(c2ccccn2)CC1 | -21 | 2.76 |
| CN(CCNC(=O)C1CCN(c2ccc(-c3ccccc3)nn2)CC1)C1CCCCC1 | 8 | -0.75 |
| Cc1ccc(C(=O)NCc2cccnc2-n2cnc3ccccc32)c(O)c1 | 14 | -1.79 |

| SMILES | % Inhibition [%] | Z score |
| --- | --- | --- |
| Cc1cc2c(cc(C(=O)NCc3ccccc3)n2CCCOc2ccccc2)o1 | -12 | 1.66 |
| O[C@@H]1CCN(C2CCN(c3cccc(-c4ccc(Cl)cc4)c3)CC2)C1 | -7 | 1.25 |
| CC(C)CN(Cc1cc(Cl)ccc1OS(=O)(=O)c1ccc(F)cc1)C(=O)c1ccccc1Cl | 11 | -1.49 |
| CC(C)CN1CCN(C(=O)[C@@H]2C[C@H](Oc3ccccc3)CN2C2CCOCC2)CC1 | -10 | 1.88 |
| COc1cc(CC(=O)Nc2scnc2C)ccc1Cl | -5 | 0.62 |
| O=C1CC[C@@]2(CCCO2)CCN1Cc1ccc2ccccc2c1 | -11 | 2.05 |
| CCc1ncc(C(=O)N(C)[C@@H](C)c2cc(-c3ccccc3)[nH]n2)cn1 | -5 | 0.72 |
| CCc1noc(C(C(C)CC)N2Cc3ccccc3C2=O)n1 (configuration not stated) | 0 | -0.05 |
| Cc1ccc(-c2nc3ccccn3c2Nc2ccc3c(c2)OCCO3)o1 | -17 | 1.7 |
| COc1cccc(CNC(C)(C)C)c1OCC(=O)NC(C)(C)C | 37 | -4.93 |
| Cc1ccccc1NC(=O)c1cnn2c3c(cnc12)CCCCCC3 | 30 | -4.32 |
| COc1ccnc(CN2CCN(S(C)(=O)=O)c3ccccc3C2)c1 | -6 | 0.56 |
| Cc1ccsc1-c1nnc(NC(=O)Cc2ccc(Cl)cc2)s1 | -1 | 0.1 |
| CC(C)N1CCO[C@@H](CC(=O)N(C)Cc2ccsc2)C1 | -10 | 1.13 |
| COCc1nc(C(=O)N(CC(F)(F)F)c2ccccn2)cs1 | -14 | 1.73 |
| Cc1ncccc1NC(=O)C(=O)N(Cc1ccccc1F)C1CCC1 | -2 | 0.23 |
| O=C(Cn1ccc2ccccc21)N1CCC(N2C(=O)COC2=O)CC1 | 2 | -0.46 |
| O=C(N1CCCC1)N1CC[C@]2(O)CCN(c3noc(-c4ccccc4)n3)C[C@@H]2C1 | -6 | 1.11 |
| O=C(NCc1cc(Br)c[nH]1)c1ccccc1Br | -1 | 0.14 |
| CC(C)c1cc(C(=O)N2CCCCC2)nc2ccnn12 | -3 | 0.57 |
